Test results taken from PubChem BioAssay AID624417 (National Center for Advancing Translational Sciences (NCATS), 2012).
About 6,400 (1.6%) of roughly 410,000 compounds were called active. Inconclusive results, whose numbers are uncertain, are shown with a selection of clear calls. Calls come from the whole dose curve; as a rule, active = well fitted inhibition curve with a large enough effect; inconclusive = small, poorly fitted or top-dose-only effect; inactive = no such curve, though single readings can be large or run the other way. A potency beside an inconclusive call is a rough fit, not a confirmed value.

molecular target: Glucagon-like peptide 1 receptor (Homo sapiens) (UniProt P43220); assay: qHTS of GLP-1 Receptor Inverse Agonists (Inhibition Mode); details: HEK293 GLP-1R CRE-luciferase, luminescence, 24 h, GLP-1R form is constitutively active; activity change, negative = inhibition: at 38.3 µM (top of the series) unless noted; note: nearly all actives have a fitted effect of over 55% in size
UniProt P43220, sequence (P43220 whole entry, looked up): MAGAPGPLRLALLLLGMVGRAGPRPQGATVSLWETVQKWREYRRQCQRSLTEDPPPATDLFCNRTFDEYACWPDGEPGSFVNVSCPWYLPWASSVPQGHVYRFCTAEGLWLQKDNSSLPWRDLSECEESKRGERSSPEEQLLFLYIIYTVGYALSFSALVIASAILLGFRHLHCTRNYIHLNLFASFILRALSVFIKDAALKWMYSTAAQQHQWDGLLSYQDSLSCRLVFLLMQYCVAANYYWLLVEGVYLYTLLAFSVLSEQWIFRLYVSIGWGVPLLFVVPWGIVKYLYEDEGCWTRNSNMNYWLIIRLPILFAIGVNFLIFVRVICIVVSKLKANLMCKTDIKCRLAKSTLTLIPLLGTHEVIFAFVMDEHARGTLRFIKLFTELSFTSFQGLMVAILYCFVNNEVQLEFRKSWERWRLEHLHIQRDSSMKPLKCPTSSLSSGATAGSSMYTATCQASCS
Procedure, shortened: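 HEK293 cells stably co-expressing constitutively active GLP-1R and a cAMP-responsive luciferase reporter were seeded in DMEM with 10% Nu serum, given compounds after 12 h, and incubated 24 h at 37 deg C. Luminescence was then read.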
% is set by controls: 0 for no effect and ±100 for the full control effect; potency is the fitted concentration of half-maximal effect; tags give direction and shape of the fitted curve.

Potency, active:
O[C@H]1C[C@H](c2ccccc2)N(CC2CCCCC2)C[C@@H]1n1cc(C2CC2)nn1 10 µM

Potency, inconclusive:
COc1ccc([C@H]2CC(=O)C=C(c3cc(Cl)ccc3OC)C2)cc1 1 µM [inhibitor, full curve, poor fit]
C=CCNC(=O)/C(C#N)=C/c1c(C)nn(-c2ccccc2)c1Cl 11.2 µM [inhibitor, single point]
O=S(=O)(c1ccc(Cl)cc1)N1CCCC1c1nc(-c2ccc(Cl)cc2)no1 (stereo not given) 28.2 µM [inhibitor, single point]
CN(c1ccccc1)S(=O)(=O)c1cccc(C(=O)Nc2ccc3c(c2)CCC3)c1 28.2 µM [inhibitor, single point]
O=C1CC(c2ccccc2)Sc2ccccc2N1Cc1ccc(F)cc1 (stereo not given) 10 µM [inhibitor, single point]
CN(Cc1ccccc1)C(=O)COc1cc(Cl)ccc1Cl 12.6 µM [inhibitor, partial curve, poor fit]
Cc1cc(C)n(-c2ccc(NC(=O)C3CCCCN3C(=O)c3ccc(C)s3)cc2)n1 (stereo not given) 3.98 µM [inhibitor, partial curve, poor fit]
CC(C(=O)N1CCN(Cc2ccc3c(c2)OCO3)CC1)c1ccc([N+](=O)[O-])cc1 (stereo not given) 11.2 µM [inhibitor, single point]
CC(C)C[C@@]12C(=O)N(c3cccc(Br)c3)C(=O)N1[C@H](c1ccc(Cl)cc1)[C@@H]1C(=O)N(C3CCCCC3)C(=O)[C@@H]12 3.16 µM [inhibitor, partial curve, poor fit]
Cc1nc(C)c(C(=O)N2CCCC(C(=O)c3ccc(Cl)cc3C)C2)s1 (stereo not given) 1.78 µM [inhibitor, full curve, poor fit]
COc1ccc(C2=Nc3ccccc3NC(c3cccs3)=N2)cc1 22.4 µM [inhibitor, single point]
CC1Cc2ccccc2N1C(=O)CNCCCN(C)C (stereo not given) 28.2 µM [inhibitor, single point]
COC(=O)C1=C(C)N=C2SC(C)C(=O)N2C1c1cccc(F)c1 (stereo not given) 11.2 µM [inhibitor, single point]
Cc1ccccc1Cn1cc(S(=O)(=O)CC(=O)Nc2nccs2)c2ccccc21 12.6 µM [inhibitor, single point]
Cc1[nH]c2ccccc2c1C(=O)CN1C(=O)NC2(CCCCCC2)C1=O 14.1 µM [inhibitor, partial curve, poor fit]
COc1ccc(C)cc1NC(=O)C(=O)NCC(c1cccnc1)N1CCc2ccccc21 (stereo not given) 7.08 µM [inhibitor, single point]
Cn1c(N)c(C(=O)COC(=O)C2CCC(C(C)(C)C)CC2)c(=O)n(C)c1=O (stereo not given) 11.2 µM [inhibitor, partial curve, poor fit]
CC(=O)Nc1ccc(S(=O)(=O)Oc2ccccc2N2CCCCC2)cc1 10 µM [inhibitor, partial curve, poor fit]
CCOc1ccc(C(Nc2ccc(C)cc2)P2(=O)OCCC(C)O2)cc1 (stereo not given) 22.4 µM [inhibitor, single point]
O=C(CC(=O)c1ccccn1)c1ccccc1 12.6 µM [inhibitor, single point]
O=C(Cn1cnc2c(nnn2Cc2ccc(F)cc2)c1=O)NCc1ccco1 8.91 µM [inhibitor, partial curve, poor fit]
COc1ccc(/C=N/Nc2cc(N(C)C)nc(N(C)C)n2)cc1 14.1 µM [inhibitor, partial curve, poor fit]
COC(=O)c1c(NC(=O)COC(=O)[C@@H](NS(=O)(=O)c2ccccc2)C(C)C)sc2c1CCC2 10 µM [inhibitor, partial curve, poor fit]
O=C(NC1CCCCCC1)C1CCN(C(=O)c2ccc(Cl)cc2)CC1 10 µM [inhibitor, partial curve, poor fit]
CCOC(=O)C(C)Sc1nc(C2CC2)cc(C(F)(F)F)c1C#N (stereo not given) 7.08 µM [inhibitor, partial curve, poor fit]
N#C/C(=C(/O)c1ccc([N+](=O)[O-])s1)c1nc2ccccc2[nH]1 1.41 µM [inhibitor, full curve]
CCN(c1ccccc1)S(=O)(=O)c1ccc(C(=O)NCCCn2ccnc2)cc1 12.6 µM [inhibitor, single point]
COc1ccccc1CNC(=O)c1ccccc1NC(=O)C1=C(C)OCCS1 10 µM [inhibitor, partial curve, poor fit]
CC(=O)n1cc([C@H]2C=C(C(=O)N3CCN(Cc4ccc5c(c4)OCO5)CC3)O[C@@H](OCCCCO)C2)c2ccccc21 12.6 µM [inhibitor, single point]
O=S(=O)(c1ccc(SCCOc2ccccc2)nc1)N1CCCC1 28.2 µM [inhibitor, single point]
O=c1ccc2ccc(Oc3ccc(Cl)cc3[N+](=O)[O-])cc2o1 28.2 µM [inhibitor, single point]
CCc1ccc(NC(=O)CC2C(=O)N(c3cccc(C)c3)C(=O)N2Cc2ccc(F)cc2)cc1 (stereo not given) 12.6 µM [inhibitor, single point]
Cc1ccc2c(c1)c(C)c(C)n2CC(O)Cn1nc(C)cc1C (stereo not given) 10 µM [inhibitor, partial curve, poor fit]
c1ccc2sc(Sc3ncnc4sccc34)nc2c1 11.2 µM [inhibitor, single point]
CCc1ccc(NC(=O)CC2C(=O)N(c3cccc(OC)c3)C(=O)N2Cc2ccc(F)cc2)cc1 (stereo not given) 14.1 µM [inhibitor, single point]
CCN1CC(C)C(O)(c2ccccc2)CC1C (stereo not given) 12.6 µM [inhibitor, single point]
O=S(=O)(c1ccc(N2CC=C(c3ccccc3)CC2)nc1)N1CCCC1 28.2 µM [inhibitor, single point]
Fc1cccc(CCN2C(=S)NC[C@@H]2Cc2ccccc2)c1 28.2 µM [inhibitor, single point]
CCCc1cc(=O)[nH]c(Nc2cc(C)ccc2OC)n1 28.2 µM [inhibitor, single point]
CCCN1CC(=O)N2C(c3ccccc3)c3[nH]c4ccccc4c3C[C@H]2C1=O (stereo not given in full) 3.16 µM [inhibitor, full curve]
O=C(Nc1ncc(Br)s1)C(Cc1ccccc1)n1cccc1 (stereo not given) 7.94 µM [inhibitor, partial curve, poor fit]
COc1cc(NC(=O)CN2C(=O)NC(c3ccccc3)(c3ccccc3)C2=O)c(C)cc1[N+](=O)[O-] 22.4 µM [inhibitor, single point]
CCCCc1c(-c2cccc(F)c2)ncn1CCc1ccccc1OC 14.1 µM [inhibitor, single point]
CC(C)(O)C#Cc1ccc(CN2CCCC(CO)(Cc3cccc(Cl)c3)C2)cc1 (stereo not given) 8.91 µM [inhibitor, partial curve, poor fit]
COc1ccc(N2CCN(C(CNS(=O)(=O)c3ccc(C)cc3)c3ccccc3)CC2)cc1 (stereo not given) 10 µM [inhibitor, partial curve, poor fit]
COc1ccccc1CNC(=O)C1CCN(c2nc3ccc(Cl)cc3[nH]2)CC1 6.31 µM [inhibitor, partial curve, poor fit]

Activity change, negative = inhibition, inactive:
COc1ccccc1OCC(=O)Nc1ccc(O)cc1C(=O)O 14.8%
COc1ccc(OCC(=O)c2c(O)c3ccccc3oc2=O)cc1 0%
Cc1ccc(-n2c3c(cc(C(=O)Nc4ccccc4C(N)=O)c2=O)C(=O)CC(C)(C)C3)cc1 -2.67%
CC(C)C1C(C#N)=C(N)SC(N)=C1C#N 10.1%
CC1CC(C)CN(C(=O)CN2C(=O)NC3(CCCCCCC3)C2=O)C1 (stereo not given) -16.9%
COc1ccc(NC(=O)CSc2nccn2Cc2ccc3c(c2)OCO3)cc1 4.25%
COc1ccc(CCn2c(SCC(=O)Nc3cc(C)on3)nc3ccccc3c2=O)cc1OC -1.94%
Cc1ccc(S(=O)(=O)N(Cc2ccccc2)c2ccccc2C(=O)NCc2ccco2)cc1 -1.55%
Cc1ccc2c(CSc3nncn3C)cc(=O)oc2c1C 1.4%
NC(=O)c1ccc(Cn2c(C(=O)c3cc(Cl)c(N)c(Cl)c3)c3ccccc3[n+]2[O-])cc1 -13.1%
COc1ccc(-n2nc(C(=O)NCC(=O)N3CCCCC3)c3ccccc3c2=O)c(OC)c1 8.86%
O=C(NCCCN1CCOCC1)c1cc2ccccc2oc1=O 0%
C=CC(=O)NC(C)(C)Cc1ccccc1 -14.8%
CCC1(CC)Cc2ccccc2-c2nc(NCCCO)[nH]c(=O)c21 -6.54%
CCN1C(=O)[C@H]2[C@@H](c3ccc(-c4ccc(OC)cc4)c(OC)c3)N[C@@](Cc3ccccc3)(C(=O)OC)[C@H]2C1=O -24.9%
Cc1cc(C)c(S(=O)(=O)Nc2cccnc2)c(C)c1 14.1%
N#C/C(=C\c1ccc(OCc2ccccc2)cc1)C(=O)Nc1ccc(C(=O)O)cc1 25.1%
CC(=O)N1CCN(CC(=O)Nc2ccc(C)c(S(=O)(=O)N(C)C)c2)CC1 4.38%
